# In PubChem BioAssay (NCATS):
# The inconclusive results got no clear call from the source; some entries with a clear call stand among them for comparison. Potencies beside an inconclusive call are fits to weak or partial responses and may not hold up. The source made the active and inactive calls. The call rests on the fitted dose curve; in most records, active means well fitted cell-killing curve with a large enough effect; inconclusive means small, poorly fitted or top-dose-only effect, or effect the other way; inactive means no such curve, though single readings can be large or run the other way.
# Test: Viability qHTS for spleen associated tyrosine kinase inhibitor (SYKi) naive MV4-11 cells (AID 1963823); further: nearly all actives have a fitted effect of over 40% in size
# Details: MV4-11 AML viability, CellTiter-Glo luminescence, 72 h; viability (% of control): at 45 µM (top of the series)
# Method in brief: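 Viability of MV4-11 AML cells lacking prior SYK inhibitor exposure is scored by CellTiter-Glo luminescence following 72 hr compound incubation at 37 C, 5% CO2, seeded at 500 cells per well.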
# Potency means the concentration at half of the fitted maximal effect; tags describe the fitted curve by direction and shape.
SMILES,viability (% of control),Potency
COC(=O)c1cccnc1,inactive: 93.6%,
CC(C)CCCC(C)N (stereo unspecified),inactive: 66%,
CN(C)C/C=C/C(=O)Nc1cc2c(Nc3ccc(F)c(Cl)c3)ncnc2cc1O[C@H]1CCOC1,,active: 1.48 µM
CC(=O)N(CC(O)CO)c1c(I)c(C(=O)NCC(O)CO)c(I)c(C(=O)NCC(O)CO)c1I (stereo unspecified),,"inconclusive: 18.8 µM [cytotoxic, partial curve, poor fit]"
CCN(Cc1cccnc1)C(=O)CN(c1ccc(OC)nc1)S(=O)(=O)c1ccccc1C,inactive: 79.1%,
COc1ccc(CN2CCN(C(=O)CCNC(=O)c3ccc(C(C)(C)C)cc3)CC2)cc1,,"inconclusive: 7.31 µM [cytotoxic, partial curve]"
C=C(C)[C@@H]1CC[C@]2(C(=O)O)CC[C@]3(C)[C@H](CCC4[C@@]5(C)CCC(=O)C(C)(C)C5C(O)C[C@]43C)C12 (stereo partly specified),,"inconclusive: 3.17 µM [cytotoxic, partial curve]"
OC(CNCCc1c[nH]c2ccccc12)Cn1c2ccccc2c2ccccc21 (stereo unspecified),,"inconclusive: 3.26 µM [cytotoxic, full curve]"
C[C@H]1[C@H](C)CC[C@]2(C(=O)O[C@@H]3O[C@H](CO)[C@@H](O)[C@H](O)[C@H]3O)CC[C@]3(C(=O)O)C(=CCC4[C@@]5(C)CC[C@H](O[C@@H]6O[C@H](CO)[C@@H](O)[C@H](O)[C@H]6O)C(C)(C)C5CC[C@]43C)[C@H]12 (stereo partly specified),inactive: 69.7% [at 9.25 µM],
CCCc1cc2c(N3CCN(C4=NCC(C)(C)S4)CC3)ncnc2s1,,active: 8.2 µM
CC(C)(C)c1ccc(-c2nc3c(N4CCN(Cc5ccc6nccnc6c5)CC4)cccc3[nH]2)cc1,,"inconclusive: 11.6 µM [cytotoxic, partial curve]"
